The text below walks through data of PMC9911399.

The other results are listed elsewhere or left out.

The target of this assay is T1, RBFOX1 RRM (Homo sapiens) (UniProt Q9NWB1).
T1 sequence: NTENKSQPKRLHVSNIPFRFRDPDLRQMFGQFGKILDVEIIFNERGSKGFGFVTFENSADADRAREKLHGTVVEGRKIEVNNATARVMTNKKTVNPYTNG
Kind of assay: EMSA. The following applies: HiTS-Eq, 1 nM pool, 10 min; buffer printed only for the single-RNA assays: 10 mM Tris pH 7.5, 150 mM NaCl, 3.4 mM EDTA, 0.001% NP-40, 30 C.

In turn, “GGGAGACCGGAAUUCAGAUUGUCCCCCCAUCUUAAAUCCCGUCGUAGCCACCA / CAATCTGAATTCCGGTCTCCC / TGGTGGCTACGACGGGATT” showed a binding signal (KA relative to UGCAUGU) of 0.00562.

Turning to “GGGAGACCGGAAUUCAGAUUGUCCUCCGGUCUUAAAUCCCGUCGUAGCCACCA / CAATCTGAATTCCGGTCTCCC / TGGTGGCTACGACGGGATT”, the binding signal (KA relative to UGCAUGU) was 0.00749.

Take “GGGAGACCGGAAUUCAGAUUGUCCCCCACCUUUAAAUCCCGUCGUAGCCACCA / CAATCTGAATTCCGGTCTCCC / TGGTGGCTACGACGGGATT”: the binding signal (KA relative to UGCAUGU) stood at 0.00332.

“GGGAGACCGGAAUUCAGAUUGUCCCCCUUCCUUAAAUCCCGUCGUAGCCACCA / CAATCTGAATTCCGGTCTCCC / TGGTGGCTACGACGGGATT” came in with a binding signal (KA relative to UGCAUGU) of 0.00606.

Consider “GGGAGACCGGAAUUCAGAUUGUCCCCCCGGAUUAAAUCCCGUCGUAGCCACCA / CAATCTGAATTCCGGTCTCCC / TGGTGGCTACGACGGGATT”, for which the binding signal (KA relative to UGCAUGU) came to 0.00831.

As to “GGGAGACCGGAAUUCAGAUUGUCCCCCUCUAUUAAAUCCCGUCGUAGCCACCA / CAATCTGAATTCCGGTCTCCC / TGGTGGCTACGACGGGATT”, the binding signal (KA relative to UGCAUGU) came to 0.000282.

Take “GGGAGACCGGAAUUCAGAUUGUCCGGCCCACUUAAAUCCCGUCGUAGCCACCA / CAATCTGAATTCCGGTCTCCC / TGGTGGCTACGACGGGATT”: the binding signal (KA relative to UGCAUGU) was determined as 0.00146.

In turn, “GGGAGACCGGAAUUCAGAUUGUCCGGCUCCUUUAAAUCCCGUCGUAGCCACCA / CAATCTGAATTCCGGTCTCCC / TGGTGGCTACGACGGGATT” registered a binding signal (KA relative to UGCAUGU) of 0.0115.

In turn, “GGGAGACCGGAAUUCAGAUUGUCCCCCCCCAUUAAAUCCCGUCGUAGCCACCA / CAATCTGAATTCCGGTCTCCC / TGGTGGCTACGACGGGATT” returned a binding signal (KA relative to UGCAUGU) of 0.0067.

In the case of “GGGAGACCGGAAUUCAGAUUGUCCUCCCCGGUUAAAUCCCGUCGUAGCCACCA / CAATCTGAATTCCGGTCTCCC / TGGTGGCTACGACGGGATT”, the binding signal (KA relative to UGCAUGU) worked out at 0.0115.

Take “GGGAGACCGGAAUUCAGAUUGUCCCUCCCCCUUAAAUCCCGUCGUAGCCACCA / CAATCTGAATTCCGGTCTCCC / TGGTGGCTACGACGGGATT”: the binding signal (KA relative to UGCAUGU) amounted to 0.00211.

Sequence “GGGAGACCGGAAUUCAGAUUGUCCCCCGGAAUUAAAUCCCGUCGUAGCCACCA / CAATCTGAATTCCGGTCTCCC / TGGTGGCTACGACGGGATT” came in with a binding signal (KA relative to UGCAUGU) of 0.0202.

Consider “GGGAGACCGGAAUUCAGAUUGUCCCCCCAAAUUAAAUCCCGUCGUAGCCACCA / CAATCTGAATTCCGGTCTCCC / TGGTGGCTACGACGGGATT”, for which the binding signal (KA relative to UGCAUGU) worked out at 0.00513.

With “GGGAGACCGGAAUUCAGAUUGUCCCCCCCGGUUAAAUCCCGUCGUAGCCACCA / CAATCTGAATTCCGGTCTCCC / TGGTGGCTACGACGGGATT”, the binding signal (KA relative to UGCAUGU) came out at 0.00326.

For the sequence “GGGAGACCGGAAUUCAGAUUGUCCGGCCCCUUUAAAUCCCGUCGUAGCCACCA / CAATCTGAATTCCGGTCTCCC / TGGTGGCTACGACGGGATT”, the binding signal (KA relative to UGCAUGU) worked out at 0.0187.

In turn, “GGGAGACCGGAAUUCAGAUUGUCCCCCCGACUUAAAUCCCGUCGUAGCCACCA / CAATCTGAATTCCGGTCTCCC / TGGTGGCTACGACGGGATT” yielded a binding signal (KA relative to UGCAUGU) of 0.0111.

For the sequence “GGGAGACCGGAAUUCAGAUUGUCCCCCUCACUUAAAUCCCGUCGUAGCCACCA / CAATCTGAATTCCGGTCTCCC / TGGTGGCTACGACGGGATT”, the binding signal (KA relative to UGCAUGU) worked out at 0.0135.

As for “GGGAGACCGGAAUUCAGAUUGUCCCCCCUCAUUAAAUCCCGUCGUAGCCACCA / CAATCTGAATTCCGGTCTCCC / TGGTGGCTACGACGGGATT”, the binding signal (KA relative to UGCAUGU) stood at 0.00496.

In turn, “GGGAGACCGGAAUUCAGAUUGUCCCCCAUUCUUAAAUCCCGUCGUAGCCACCA / CAATCTGAATTCCGGTCTCCC / TGGTGGCTACGACGGGATT” displayed a binding signal (KA relative to UGCAUGU) of 0.00456.

On to “GGGAGACCGGAAUUCAGAUUGUCCCACUCCCUUAAAUCCCGUCGUAGCCACCA / CAATCTGAATTCCGGTCTCCC / TGGTGGCTACGACGGGATT”, for which the binding signal (KA relative to UGCAUGU) was 0.00424.

Regarding “GGGAGACCGGAAUUCAGAUUGUCCCCCAGACUUAAAUCCCGUCGUAGCCACCA / CAATCTGAATTCCGGTCTCCC / TGGTGGCTACGACGGGATT”, the binding signal (KA relative to UGCAUGU) was 0.00439.

The sequence “GGGAGACCGGAAUUCAGAUUGUCCCCCAACCUUAAAUCCCGUCGUAGCCACCA / CAATCTGAATTCCGGTCTCCC / TGGTGGCTACGACGGGATT” yielded a binding signal (KA relative to UGCAUGU) of 0.00622.

In the case of “GGGAGACCGGAAUUCAGAUUGUCCCUCCCCAUUAAAUCCCGUCGUAGCCACCA / CAATCTGAATTCCGGTCTCCC / TGGTGGCTACGACGGGATT”, the binding signal (KA relative to UGCAUGU) was determined as 0.00712.

Turning to “GGGAGACCGGAAUUCAGAUUGUCCUCCCACCUUAAAUCCCGUCGUAGCCACCA / CAATCTGAATTCCGGTCTCCC / TGGTGGCTACGACGGGATT”, the binding signal (KA relative to UGCAUGU) amounted to 0.00425.
